# Results published in the supplement of paper PMC3334620.
# The full ranking holds about 33,000 sequences; the median of “E-score (-0.5 to 0.5)” is about -0.054, and the highest 2% start at about 0.35. This is one part of the list.
# Target: T1, Stb5 (UniProt P38699)
# T1 sequence: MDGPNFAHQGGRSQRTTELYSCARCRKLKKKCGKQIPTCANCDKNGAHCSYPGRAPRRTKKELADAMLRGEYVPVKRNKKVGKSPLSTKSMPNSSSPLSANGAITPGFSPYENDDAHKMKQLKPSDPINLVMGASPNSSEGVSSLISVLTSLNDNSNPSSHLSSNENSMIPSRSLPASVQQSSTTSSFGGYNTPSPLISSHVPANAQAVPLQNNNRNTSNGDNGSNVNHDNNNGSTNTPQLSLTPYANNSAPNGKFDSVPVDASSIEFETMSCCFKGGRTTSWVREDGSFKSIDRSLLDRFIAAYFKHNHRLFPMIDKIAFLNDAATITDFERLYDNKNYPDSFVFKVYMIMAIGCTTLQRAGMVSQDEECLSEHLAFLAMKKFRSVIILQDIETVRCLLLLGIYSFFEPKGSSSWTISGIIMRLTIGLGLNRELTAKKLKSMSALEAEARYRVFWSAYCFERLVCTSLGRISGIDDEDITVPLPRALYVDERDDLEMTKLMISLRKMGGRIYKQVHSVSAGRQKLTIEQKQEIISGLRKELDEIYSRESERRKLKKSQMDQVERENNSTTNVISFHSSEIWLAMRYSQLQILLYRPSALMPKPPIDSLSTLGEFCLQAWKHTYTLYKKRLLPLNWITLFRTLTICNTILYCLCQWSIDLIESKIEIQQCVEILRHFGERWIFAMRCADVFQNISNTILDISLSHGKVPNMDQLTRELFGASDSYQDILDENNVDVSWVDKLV
# Assay: PBM E-score (8-mer binding enrichment) (E-score (-0.5 to 0.5)); higher = stronger / more preferred TF binding; most listed sequences are background and not binding sites
# Conditions: protein concentration: 200 nM; construct: GST-full length
# Experimental: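 Universal 'all 10-mer' protein binding microarrays (Agilent AMADID 015681) probed with GST-tagged S. cerevisiae TFs (full-length or DBD) made by in vitro transcription/translation (PURExpress), about 100-200 nM. Bound TF was detected with fluorescent anti-GST. Each ungapped 8-mer (which stands for itself and its reverse complement) is scored by the PBM enrichment score (E-score), a modified Wilcoxon-Mann-Whitney statistic from -0.5 to +0.5, computed with the Universal PBM Analysis Suite. Scale: above 0.35 generally sequence-specific binding.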
row,Sequence,PBM E-score
1,GGGACTAA,0.246
2,AAAGGTGC,-0.0655
3,AGCTGCTC,-0.319
4,CAGCTTAC,-0.0458
5,ATCGTACC,0.157
6,AAGTCCAA,0.0242
7,GGTAGGCA,-0.125
8,AATTTCCA,-0.0589
9,CACGCAAA,-0.0178
10,AGAGGCGG,0.253
11,ATGACCGA,0.31
12,CTACCCGA,-0.0648
13,AAAAGTTC,-0.046
14,GGTACCAA,0.165
15,ATTTTCTA,-0.195
16,AAACTCTG,-0.125
17,CGGGCACC,0.167
18,GGACCTTA,0.2
19,CGTACTAG,-0.165
20,CCCTAGGC,-0.177
21,TAGTGAAA,-0.162
22,CACTGTCC,-0.199
23,CCCAGCCG,-0.203
24,GTACTTTA,0.00909
25,CTGCAACC,-0.192

row,Sequence,PBM E-score
1,AACTGATA,0.0121
2,CTCTCCGC,0.0985
3,CATTTGAA,0.0393
4,CGTGCTGC,-0.07
5,GTTAGTTA,0.056
6,AATAGATG,-0.00833
7,GCCGAGCC,0.0692
8,ACACTCGA,-0.2
9,AGTCCCCG,0.2
10,AATTGATC,-0.034
11,AGTGAGAT,-0.16
12,CATAAGGG,-0.0499
13,GAAACACC,0.249
14,CCGCTGGC,0.218
15,AGCCTATA,-0.196
16,GCCCACTA,-0.249
17,AGGGTCGG,0.317
18,CGGGTATA,0.403
19,AGAGCACT,-0.175
20,CCCTTGCG,-0.114
21,TATACCCA,-0.0259
22,ATGCGTAA,-0.0634
23,CGCAAGTC,-0.0245
24,AGTGTATC,-0.148
25,ATAATACG,0.153

row,Sequence,PBM E-score
1,CACTCACG,-0.0964
2,ACATACTG,-0.09
3,CAGGCCCG,0.109
4,AACGGAAA,0.129
5,CGGTGCTC,0.327
6,AGTCTCGA,-0.212
7,CTTCTCCC,-0.208
8,GTCCAGCA,-0.365
9,CTGATACC,0.153
10,CGGCGCTC,0.204
11,TCGCGTAA,0.144
12,AGAAATCG,0.0195
13,GACTCATA,-0.0292
14,AAGTCTCA,-0.205
15,AACGCATC,0.0343
16,AAAGATAG,-0.235
17,CTAATGAA,0.0677
18,AGTTAAGC,0.121
19,ACTAACAC,0.0421
20,CGCGAAAA,0.212
21,CCTAATCG,-0.0955
22,CTTTTGAA,0.0323
23,CTTGGAGA,-0.0702
24,ACGGAAGA,0.0597
25,ATATTATA,0.143

row,Sequence,PBM E-score
1,ATACACCG,0.402
2,AAGCGGCC,0.262
3,CGGCCTGA,0.236
4,CCGTACCG,0.28
5,ATTTAGAA,-0.0582
6,CTGGTCAA,-0.00732
7,CTAGACCA,-0.378
8,CACGAGCG,0.086
9,GGACCCAC,0.0454
10,GACAAAGA,-0.0701
11,GGCACAAA,0.122
12,CAGTGTAA,-0.141
13,CACTCCTC,-0.234
14,AGCTCCGG,0.362
15,CTACGACC,-0.0815
16,CCGGTCTA,0.216
17,AGGAGCTC,-0.144
18,AACCATTA,-0.0328
19,AGACCATC,-0.249
20,GAGGATGA,-0.0572
21,CAGGTCTA,-0.254
22,CAAACGGC,0.111
23,AAGCTGAC,-0.089
24,CCGGCATC,0.28
25,CCTGTGAC,-0.0962

row,Sequence,PBM E-score
1,ATTGAAGG,-0.046
2,AGCGTAGC,-0.0925
3,GAGATTGC,-0.0088
4,CTCCGCCC,0.397
5,CCTTCGTC,-0.227
6,GCAGAGTA,-0.202
7,AATAGCGG,0.322
8,GAGTATTA,0.0885
9,GAGCCCGA,0.264
10,ACCGCAGT,0.206
11,ACCGACCC,0.361
12,AAAAGGAC,-0.0304
13,AACCACTG,-0.192
14,TCGGAGCA,0.198
15,CCGAACCA,0.117
16,AAATGCCG,0.435
17,CCCTCTAC,-0.283
18,AATGATTC,-0.0738
19,AGCCCGCA,0.259
20,ACCTGAGA,-0.23
21,AGGCGACT,-0.112
22,CCTAAGGA,0.0237
23,CCCTATGC,-0.293
24,ACTTCGGA,0.116
25,AGAAAGCG,-0.0568

row,Sequence,PBM E-score
1,ACTCCCCA,-0.225
2,CGTAATCA,-0.128
3,AGTGTCTA,-0.106
4,CCGCCCCA,0.287
5,ATGGGTAA,-0.112
6,GTGGCAAC,0.0155
7,CTTACTCC,0.124
8,CTATAGTC,-0.155
9,CAACACCG,0.408
10,AAGAGTAA,-0.174
11,ACTTACAA,-0.151
12,AACCGTAT,0.0334
13,ATTCCTCG,-0.0859
14,AGATGGTC,0.0239
15,CAGAGTCA,-0.244
16,TATTCCCA,0.153
17,CGGATCCG,0.124
18,GGCCCTAA,0.207
19,TATAGGGA,-0.05
20,GCGGGTCA,0.0299
21,AGCCGTTA,0.0306
22,CGGGCAGC,-0.0267
23,CACCCGCG,0.18
24,CTAGTCAG,-0.258
25,GCCGCGGA,0.299

row,Sequence,PBM E-score
1,GAGACTAA,0.0679
2,GTACTGAC,-0.00036
3,ACATACCT,0.0844
4,GCGATTCC,0.0798
5,CTTACAAG,-0.134
6,AAATTTGA,-0.103
7,CCCCGTTA,0.293
8,CAGCCCAG,-0.278
9,AGGAGGTC,-0.161
10,AACGCTCT,-0.133
11,AACTACGG,0.198
12,CGATCTTC,0.112
13,ACTGCATC,-0.299
14,CGGTTAAA,0.259
15,GAGGTTGA,-0.14
16,CCTAGCGA,-0.379
17,ATTATAAA,0.117
18,AAGCCCCG,0.431
19,AATTTGAC,0.0338
20,GACTCAGA,-0.0449
21,CAGACCAC,-0.0981
22,TACCGAGA,0.102
